The supplement of paper PMC12217912
Some of the results follow. The full chains were built here from the parent and the listed change. Inactive controls read about 0.05.

B1: TEV protease; numbered along this chain (parent)
chain: MGESLFKGPRDYNPISSSICHLTNESDGHTTSLYGIGFGPFIITNKHLFRRNNGTLVVQSLHGVFKVKDTTTLQQHLVDGRDMIIIRMPKDFPPFPQKLKFREPQREERICLVTTNFQTKSMSSMVSDTSCTFPSGDGIFWKHWIQTKDGQCGSPLVSTRDGFIVGIHSASNFTNTNNYFTSVPKNFMELLTNQEAQQWVSGWRLNADSVLWGGHKVFMVKPEEPFQPVKEATQL

Variants of: B1
Assay: raw area under fraction-flipped curve 0-4 h after induction (AUC4h, not background-subtracted), DNA-recorder readout of cleavage of the substrate (dimensionless); higher = more cleavage of the substrate by the protease variant
Details: temperature: 34 °C; time window: 0-4 h after rhamnose induction
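Note: Bxb1 expression induced with 0.2% (w/v) L-rhamnose at OD600 near 0.5, cultures sampled hourly, flipped fraction per protease–substrate barcode pair counted by paired-end Illumina sequencing.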

Variant	area with substrate ENLYFQC	area with substrate ENLYFQG	area with substrate ENLYFQI	area with substrate ENLYFQK	area with substrate ENLYFQM	area with substrate ENLYFQS	area with substrate ENLYFQT	area with substrate ENLYFQV	area with substrate ENLYFQY	area with substrate ENLYFQF	area with substrate ENLYFQL	area with substrate ENLYFQP	area with substrate ENLYFQW	area with substrate ENLYFQH	area with substrate ENLYFQN	area with substrate ENLYFQR	area with substrate ENLYFQD	area with substrate ENLYFQQ	area with substrate ENLYFQE	area with substrate ENLYFQA
P96S	0.135	0.105	0.0741	0.0638	0.0931	0.101	0.0639	0.0647	0.0542	–	–	–	–	–	–	–	–	–	–	–
G8S	0.0962	0.0755	–	0.076	–	0.101	–	–	–	0.0691	0.0432	0.0637	0.0687	–	–	–	–	–	–	–
G8A	0.117	–	–	0.0618	0.0874	0.101	0.0592	–	–	–	–	–	–	–	–	–	–	–	–	–
G8F	0.121	–	–	–	–	0.091	–	0.0521	0.0917	–	0.07	0.0764	0.007	0.0983	0.0846	–	–	–	–	–
G8D	0.0939	0.0864	–	–	0.0687	0.101	–	–	–	–	–	0.0487	–	–	–	0.0568	–	–	–	–
G8K	0.122	0.0991	0.0587	–	0.102	0.104	0.0572	–	–	–	0.0565	–	–	–	–	–	0.0868	–	–	–
G54I	0.0728	–	0.0549	0.0524	0.0664	0.0688	0.0544	–	0.0587	0.0573	–	–	0.0585	–	0.0699	0.054	0.0701	–	–	–
M88G	0.0798	0.157	0.0419	0.0498	–	0.0706	0.048	0.0465	0.0515	–	0.0418	0.0507	0.0448	–	0.0788	0.0434	–	0.06	–	–
V64C	0.12	0.0853	0.0668	0.0743	–	0.0976	0.0646	–	0.0853	0.0795	0.0794	0.0574	0.0674	0.101	0.0736	0.0545	0.0713	–	–	–
V64T	0.107	0.0825	0.0688	–	–	0.109	0.0742	–	–	–	0.0596	–	0.0683	–	–	–	–	–	–	–
V64K	0.129	0.102	0.0543	–	–	0.106	0.0688	0.0747	–	–	–	0.0641	0.0711	0.0668	–	0.0604	0.0815	–	–	–
L56Y	0.057	0.0404	–	0.0489	0.0561	0.0582	0.0464	0.0529	0.0239	0.0449	0.0513	0.0684	0.0545	0.0579	0.0683	0.0555	0.0746	–	0.0755	–
S32I	0.106	0.0876	0.061	–	0.0963	0.107	0.0583	–	0.0651	0.0399	0.058	0.056	0.0617	0.0823	0.108	0.0522	–	–	–	–
N24D	0.0667	0.0662	0.0648	0.0587	0.083	0.0756	0.0596	0.0553	0.0659	0.0628	0.0565	–	0.0483	0.0856	0.0621	0.0864	0.089	–	–	–
unchanged	0.115	0.0975	0.0597	0.0642	0.0876	0.104	0.066	0.0604	0.0776	0.0765	0.0609	0.0582	0.0676	0.083	0.0788	0.0605	0.0721	0.0712	0.0636	0.101
A232V	–	–	–	–	0.1	0.106	–	0.0116	–	–	–	–	–	–	0.0702	–	–	–	–	0.112
L48F	0.108	0.117	–	0.0636	0.102	0.105	0.0758	0.0636	0.0796	–	0.0682	–	0.0787	0.0935	0.0698	0.0629	–	–	–	–
L48Q	0.0581	0.0735	0.0471	0.0536	0.0562	0.0622	0.0528	0.0575	0.0596	0.0727	0.0612	–	–	0.0666	0.0551	0.0627	–	–	0.0724	–
L48A	0.0675	0.0711	0.0615	0.0628	0.0681	0.0866	0.0641	0.0633	0.0705	–	0.0559	0.0515	0.0464	0.0745	0.0558	0.0639	0.0673	0.0652	–	–
L112F	0.111	0.0946	0.08	–	–	0.0952	0.0517	0.0277	–	0.101	–	0.0288	0.0729	0.0895	0.0602	0.0569	0.0626	–	0.0545	–
L112H	0.0555	0.0816	0.0592	0.065	0.0608	0.0718	0.0613	0.0557	0.0591	–	0.0504	0.0619	0.0603	–	0.0866	0.0741	0.0553	–	–	–
P40N	0.109	–	0.0672	0.0625	0.0984	0.112	0.0701	0.0549	0.0703	–	0.0569	–	0.0428	–	–	0.0498	0.0769	–	–	–
P40K	0.117	0.0934	0.0657	0.0722	0.0973	0.108	0.055	0.0609	0.0421	–	0.0786	–	0.0944	–	0.0613	0.0621	0.0663	0.0773	–	–
P40I	0.094	0.0743	0.0579	0.0593	0.0716	0.0905	0.0691	0.0523	–	–	0.0436	0.0556	0.0557	0.073	0.0679	0.0509	0.073	–	–	–
S16H	0.126	0.114	0.065	–	0.0938	0.0981	0.065	–	–	–	0.0585	0.0524	0.0646	0.079	0.0726	0.0434	0.06	–	–	–
S16L	0.0948	0.0753	0.0481	0.0586	0.0949	0.0965	0.0626	0.066	0.08	–	0.0684	0.0395	–	–	0.0819	0.0596	0.08	0.0637	–	–
R81N	0.104	0.0835	0.0539	0.0588	0.0645	0.0852	0.0663	0.0522	–	–	0.0576	–	0.0566	0.0796	–	0.0528	0.0701	–	–	–
R81T	0.0859	0.0778	0.0621	0.0708	–	0.0765	0.0574	–	0.0517	0.0552	0.0605	0.0666	0.0645	–	0.0563	0.0495	–	–	–	–
